Test results reported in PubChem BioAssay AID463173 (ICCB-Longwood Screening Facility, Harvard Medical School, 2010).
The campaign covered roughly 52,000 compounds. About 1,700 (3.3%) were called active. Rule as the data show it: active = survival mostly below about 52% (no sharp cut-off); inactive = mostly above about 56%. The list shows a part of the results.

tested on: Wild type; test: growth inhibition of S. aureus wild type versus tarO mutant, primary screen, teichoic acid synthesis inhibitors, RN4220, OD600 (AID 463173); settings: S. aureus RN4220 wild type/DeltatarO growth, OD600, 18 h, stronger effect = lower value, screened at 18.75 µg/mL (by protocol)

Compound	survival
CN(CCCN1C(=O)c2ccccc2C1=O)CCCN1C(=O)c2ccccc2C1=O	inactive: 97%
Cc1ccc(-n2c(-c3cccc(C)c3)nc3c(cnn3-c3ccccc3)c2=O)cc1	inactive: 26%
O=S(=O)(c1ccc(F)cc1)N1CCCCC1	inactive: 109%
CCN(CC)C(=O)n1c(Cc2ccccc2)nc2ccccc21	inactive: 111%
CCOC(=O)c1ccccc1NC(=O)CSc1nc2cn(CC)nc2c(=O)n1Cc1ccc(Cl)cc1	inactive: 67%
Cc1ccc2c(c1)c1c(c(=O)n(-c3cccc(Cl)c3)c(=O)n1CC(=O)Nc1c(C)cccc1C)n2C	inactive: 66%
O=C(CC1N=C2c3ccccc3N=C(SCc3ccc(Cl)cc3)N2C1=O)NCc1cccs1 (stereo unspecified)	inactive: 71%
COc1ccc(N2CCN(C(=O)C3CCN(S(=O)(=O)c4cccs4)CC3)CC2)cc1	inactive: 115%
Cc1ccc(CN2CCSc3ccc(C(=O)N4CCN(c5ccccc5)CC4)cc32)cc1	inactive: 48%
O=c1c2cc3c(cc2n(Cc2ccc(Cl)cc2)c(=O)n1Cc1nc(-c2ccccc2)no1)OCO3	inactive: 117%
Cc1ccc(-n2c(Cc3ccccc3)nnc2SCc2nc(-c3cccs3)no2)cc1	inactive: 65%
Cc1ccc(/C=C/c2onc(C)c2S(=O)(=O)N2CCC(C(=O)N3CCC(N(C)C(C)C)CC3)CC2)cc1	inactive: 74%
Cc1ccc(C)c(CN2CCCN(Cc3ccc(F)cc3)S2(=O)=O)c1	active: -6%
COc1ccc(CNC(=O)Cc2c(C)c3cc4c(C)coc4c(C)c3oc2=O)cc1	inactive: 95%
O=C(Nc1cccc(Cl)c1)c1cnc2sc(N3CCCC3)nn2c1=O	inactive: 58%
CN1C(=O)Cc2cc(S(=O)(=O)N3CCN(c4ccccc4F)CC3)ccc21	inactive: 153%
Cc1nc(-n2nc(C)c(Cc3ccccc3Cl)c2C)sc1C(=O)Nc1ccccc1F	inactive: 88%
CC(C)c1ccc(C2=CC(c3ccc(C(C)C)cc3)n3nnnc3N2)cc1 (stereo unspecified)	inactive: 63%
Cc1ccc2nc3c(cc(C(=O)NCC4CCCO4)c(=N)n3C(C)C)c(=O)n2c1 (stereo unspecified)	inactive: 82%

Compound	survival
CCOC(=O)Cn1c(=O)n(CC2CCCO2)c2nc(-c3ccc(C)cc3)nc(C(N)=O)c21 (stereo unspecified)	inactive: 63%
CC(=O)c1ccc(S(=O)(=O)N2CCn3cccc3C2c2ccc(C)cc2)cc1 (stereo unspecified)	inactive: 72%
COc1ccc(Cl)cc1NC(=O)Cc1ccc(NC(=O)N2CCCCc3ccccc32)cc1	inactive: 78%
COc1ccccc1NC(=O)C(=O)NCC(c1ccc2c(c1)OCO2)N1CCOCC1 (stereo unspecified)	inactive: 63%
COc1ccccc1/C=C/c1nc2ccccc2n1C(C)C	active: 2%
CSc1ccc(CCNC(=O)c2cnc3c(C)cccn3c2=O)cc1	inactive: 113%
CCc1nnc(NC(=O)CSc2nccn2-c2ccc(OC)cc2)s1	inactive: 135%
Cc1ccc(OC(=O)c2cccc(S(=O)(=O)N3CCOCC3)c2)c(-n2nc3ccccc3n2)c1	inactive: 103%
CCn1c(C)c(C2N3CC4(C)CN2CC(C)(C3)C4=O)c2ccccc21 (stereo unspecified)	inactive: 87%
COC(=O)CSc1nnc(C2CCCCC2)n1Cc1ccccc1	inactive: 112%
CC(C)(C)C(=O)Nc1ccc2oc(=O)ccc2c1	inactive: 108%
CC(=O)c1cccc(-n2c(=O)c3c4c(sc3n(CC(=O)c3ccccc3)c2=O)CN(C(C)=O)CC4)c1	inactive: 88%
Cc1nc(C)c(-c2ccc(SCC(=O)Nc3ccc(Br)cc3)nn2)s1	inactive: 95%
CC(=O)c1cc2c(cc1N/C(=N/S(=O)(=O)c1ccc(Cl)cc1)c1ccc(F)cc1)OCO2	inactive: 80%
CC1(C)Cc2ccccc2C(=NCC(=O)O)N1	inactive: 101%
Cc1ccc(C)c(CN2C(=O)c3ccccc3S(=O)(=O)c3ccc(C(=O)N(C)C4CCCCC4)cc32)c1	inactive: 94%
Cc1ccc(/C=C/c2onc(C)c2S(=O)(=O)N2CCC(C(=O)Nc3ccc(C)c(N(C)C)c3)CC2)cc1	inactive: 143%
Cc1ccc(C(=O)NC2CCSC2=O)cc1 (stereo unspecified)	inactive: 101%
Cc1ccc(CNC(=O)CCCCCn2c(=O)[nH]c3ccccc3c2=O)cc1	inactive: 146%

Compound	survival
Cc1nn(-c2ccccc2)c(OC(=O)C(C)C)c1Sc1ccc(Cl)cc1	inactive: 39%
CCc1ccccc1NC(=O)Nc1c[nH]c(=O)[nH]c1=O	inactive: 70%
Cc1ccc(C)c(N2CCN(C(=O)c3ccc(NC(=O)c4nsc5ccccc45)cc3)CC2)c1	inactive: 63%
COc1cc(C(=O)Oc2c(Sc3ccccc3)c(C)nn2-c2ccccc2)cc(OC)c1OC	inactive: 86%
CC1CCCN(CCCNC(=O)c2ccc3c(c2)N(Cc2ccccc2F)C(=O)c2ccccc2S3(=O)=O)C1 (stereo unspecified)	inactive: 169%
Cc1c(Cl)cccc1NC(=O)CCN1CCC(C(N)=O)CC1	inactive: 98%
Cc1ccccc1-c1nc(CN2CCC(C(=O)NCc3ccccc3Cl)CC2)c(C)o1	inactive: 85%
CC(C)(C)c1ccc(NC(=O)C2CCCN(c3cnccn3)C2)cc1 (stereo unspecified)	inactive: 114%
CCOc1ccc(N2CC(NC(=O)CCc3ccccc3)CC2=O)cc1 (stereo unspecified)	inactive: 78%
O=S1(=O)C=C(N2CCCC2)c2ccccc21	inactive: 96%
CC(=O)c1cc2c(cc1N/C(=N/S(=O)(=O)c1ccc(C)cc1)c1ccccc1)OCO2	inactive: 88%
COC(=O)c1ccc(NC(=O)CCS(=O)(=O)c2ccc(Br)cc2)cc1	inactive: 85%
Cc1cc(C)c(NC(=O)Cn2c(=O)n(CC(=O)NCc3ccccc3Cl)c(=O)c3sccc32)c(C)c1	inactive: 161%
COC(=O)C(NC(=O)CC(C)C)(Nc1nc2c(s1)CCCC2)C(F)(F)F (stereo unspecified)	inactive: 121%
CCOC(=O)c1c(NC(=O)/C=C/c2ccc(OCC)cc2)sc(C)c1C	inactive: 76%
CCOc1ccc(CNCc2c(C(=O)O)n(Cc3ccccc3F)c3cc(OC)ccc23)cc1	inactive: 85%
CCc1cnc2c(c1SCC(=O)N1CCCCC1)c(=O)n(C)c(=O)n2C	inactive: 71%
CCCCOc1ccc(C(=O)NCCS(=O)(=O)N2CCN(c3ccc(F)cc3)CC2)cc1	inactive: 65%
